This note sets out measurements from US20100260668A1 (published 2010).

The target of test [1] is T1, PlGF (UniProt P49763-2 21-149, limits assumed).
T1 construct: bought antigen coated on the ELISA plate; also called Placental GF
T1 sequence (looked up): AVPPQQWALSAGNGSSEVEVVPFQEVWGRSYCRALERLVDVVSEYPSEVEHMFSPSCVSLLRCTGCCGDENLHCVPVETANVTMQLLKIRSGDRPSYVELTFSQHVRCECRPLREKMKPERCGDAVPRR
Nature of the test: direct bind ELISA, C-terminal VD.

Test [2] has as its target biotin-labeled human IGF1 (human, UniProt P05019 partial chain, biotin-labeled). Nature of the test: capture ELISA, DVD-Ig captured by anti-human Fc, biotin-labeled IGF1; C-terminal VD. (An ELISA detects its analyte on a solid surface through an enzyme-linked reagent.)
Test [3] concerns the target biotin-labeled human IGF2 (human, UniProt P01344 partial chain, biotin-labeled). Nature of the test: capture ELISA, DVD-Ig captured by anti-human Fc, biotin-labeled IGF2; C-terminal VD.
Test [4] concerns the target T2, IGF-I (UniProt P05019 partial chain).
T2 construct: Bought reagent; also called IGF1
Briefly: Biacore SPR. (SPR reads the build-up and loss of mass on a sensor chip optically.)

In test [5] the target is T3, IGF-2 (UniProt P01344 partial chain).
T3 construct: Bought reagent
Briefly: Biacore SPR.

Test [6] deals with T4, IGF1R (antigen of the capture ELISA table) (UniProt P08069 31-932, limits assumed).
T4 construct: No IGF1R capture ELISA method is described; also called IGFR
Briefly: antigen capture ELISA, IGF1R; C-terminal VD.

Test [7] addresses T5, IGF1R (UniProt P08069 31-1367, limits assumed).
T5 construct: whole, on cells; also called insulin-like growth factor receptor
Nature of the test: flow cytometry on cells carrying the target, 2 ug/mL; C-terminal VD. (Flow cytometry measures light scatter and fluorescence of single cells or particles in a stream.)

Test [8] concerns the target T6, IGF1 (IGF-I) (UniProt P05019 partial chain).
T6 construct: Bought reagent
Nature of the test: Direct Bind ELISA, antigen on plate; C-terminal VD; first value of IGF1/IGF2 cell.

The target of test [9] is T7, IGF2 (IGF-2) (UniProt P01344 partial chain).
T7 construct: Bought reagent
Briefly: Direct Bind ELISA, antigen on plate; C-terminal VD; second value of IGF1/IGF2 cell.

For test [10], the target named is T6, IGF1 (IGF-I). Nature of the test: Direct Bind ELISA, antigen on plate; N-terminal VD; first value of IGF1/IGF2 cell.
The target of test [11] is T7, IGF2 (IGF-2). Nature of the test: Direct Bind ELISA, antigen on plate; N-terminal VD; second value of IGF1/IGF2 cell.
Test [12] addresses T8, IGF1R ECD (UniProt P08069 31-935, limits assumed).
T8 construct: extracellular domain; Bought reagent
Nature of the test: Direct Bind ELISA, antigen on plate; C-terminal VD.

In test [13] the target is T8, IGF1R ECD. Briefly: Direct Bind ELISA, antigen on plate; N-terminal VD.

B1: DVD556 (bispecific antibody, human IgG1, kappa)
heavy: [omitted - about 120 residues]ASTKGPSVFPLAPQVQLKQSGPGLVQPSQSLSITCTVSGFSLTTYGIHWVRQSPGKGLEWLGVMWSGGDTDYDAAFISRLSISKDNSKSQVFFKMNSLQANDTGIYYCARYRFYGMDYWGQGTSVTVSS[omitted - human IgG1 constant region]
light: [omitted - about 100 residues]RTVAAPSVFIFPPAIQMTQSSSSFSVSLGDRVTITCKASEDIYNRFAWYQQKPGNAPRLLISGAASLEAGVPSRFSGSGSGQDYTLSITSLQTEDVATYYCQQYWSTPWTFGGGTKLEIKRTVAAPSVFIFPPSDEQLKSGTASVVCLLNNFYPREAKVQWKVDNALQSGNSQESVTEQDSKDSTYSLSSTLTLSKADYEKHKVYACEVTHQGLSSPVTKSFNRGEC
notes: HC linker long, LC linker long; also called DVD-Ig DVD556
For B1, a half-maximal response in test [1] (EC50) required 0.24 nM.

B2: DVD572 (bispecific antibody, human IgG1, kappa)
heavy: [omitted - about 120 residues]ASTKGPQVQLKQSGPGLVQPSQSLSITCTVSGFSLTTYGIHWVRQSPGKGLEWLGVMWSGGDTDYDAAFISRLSISKDNSKSQVFFKMNSLQANDTGIYYCARYRFYGMDYWGQGTSVTVSS[omitted - human IgG1 constant region]
light: [omitted - about 100 residues]RTVAAPSVFIFPPAIQMTQSSSSFSVSLGDRVTITCKASEDIYNRFAWYQQKPGNAPRLLISGAASLEAGVPSRFSGSGSGQDYTLSITSLQTEDVATYYCQQYWSTPWTFGGGTKLEIKRTVAAPSVFIFPPSDEQLKSGTASVVCLLNNFYPREAKVQWKVDNALQSGNSQESVTEQDSKDSTYSLSSTLTLSKADYEKHKVYACEVTHQGLSSPVTKSFNRGEC
notes: HC linker short, LC linker long; also called DVD-Ig DVD572
Consider B2, for which the response in test [1] was half-maximal at 2.34 nM (EC50).

B3: DVD564 (bispecific antibody, human IgG1, kappa)
heavy: [omitted - about 120 residues]ASTKGPSVFPLAPQVQLKQSGPGLVQPSQSLSITCTVSGFSLTTYGIHWVRQSPGKGLEWLGVMWSGGDTDYDAAFISRLSISKDNSKSQVFFKMNSLQANDTGIYYCARYRFYGMDYWGQGTSVTVSS[omitted - human IgG1 constant region]
light: [omitted - about 100 residues]RTVAAPAIQMTQSSSSFSVSLGDRVTITCKASEDIYNRFAWYQQKPGNAPRLLISGAASLEAGVPSRFSGSGSGQDYTLSITSLQTEDVATYYCQQYWSTPWTFGGGTKLEIKRTVAAPSVFIFPPSDEQLKSGTASVVCLLNNFYPREAKVQWKVDNALQSGNSQESVTEQDSKDSTYSLSSTLTLSKADYEKHKVYACEVTHQGLSSPVTKSFNRGEC
notes: HC linker long, LC linker short; also called DVD-Ig DVD564
Turning to B3, the half-maximal effective concentration (EC50) (as a rule, the midpoint of the concentration-response curve) in test [1] stood at 1.37 nM.

B4: DVD029 (bispecific antibody, human IgG1, lambda)
heavy: [omitted - about 120 residues]ASTKGPQVQLVQSGAEVKKPGASVKVSCKASGYTFTSYDINWVRQATGQGLEWMGWMNPNSGNTGYAQKFQGRVTMTRNTSISTAYMELSSLRSEDTAVYYCARDPYYYYYGMDVWGQGTTVTVSS[omitted - human IgG1 constant region]
light: [omitted - about 100 residues]RTVAAPQSVLTQPPSVSAAPGQKVTISCSGSSSNIENNHVSWYQQLPGTAPKLLIYDNNKRPSGIPDRFSGSKSGTSATLGITGLQTGDEADYYCETWDTSLSAGRVFGGGTKLTVLGQPKAAPSVTLFPPSSEELQANKATLVCLISDFYPGAVTVAWKADSSPVKAGVETTTPSKQSNNKYAASSYLSLTPEQWKSHRSYSCQVTHEGSTVEKTVAPTECS
notes: also called HER-2 / IGF1,2 DVD-Ig; DVD029H
As for B4, the values for the half-maximal effective concentration (EC50) in test [2] and in test [3] were 229 nM and 206 nM, respectively.

B5: DVD029 (bispecific antibody, human IgG1, lambda)
heavy: [omitted - about 120 residues]ASTKGPQVQLVQSGAEVKKPGASVKVSCKASGYTFTSYDINWVRQATGQGLEWMGWMNPNSGNTGYAQKFQGRVTMTRNTSISTAYMELSSLRSEDTAVYYCARDPYYYYYGMDVWGQGTTVTVSS[omitted - human IgG1 constant region]
light: [omitted - about 100 residues]RTVAAPQSVLTQPPSVSAAPGQKVTISCSGSSSNIENNHVSWYQQLPGTAPKLLIYDNNKRPSGIPDRFSGSKSGTSATLGITGLQTGDEADYYCETWDTSLSAGRVFGGGTKLTVLGQPKAAPSVTLFPPSSEELQANKATLVCLISDFYPGAVTVAWKADSSPVKAGVETTTPSKQSNNKYAASSYLSLTPEQWKSHRSYSCQVTHEGSTVEKTVAPTECS
notes: also called DVD029H; DVD029L
B5: in [4], binding was characterised by a dissociation constant (Kd) of 6.36 nM; the koff (usually a measure of how fast the partners let go of each other) was found to be 0.000423 s⁻¹; the kon (in general, the second-order rate constant of association) is 66500 M⁻¹ s⁻¹. For the same molecule, in test [5], the dissociation constant Kd (commonly the equilibrium constant for the complex coming apart) was found to be 0.302 nM, the koff came out at 3.15e-05 s⁻¹ and the kon is 104000 M⁻¹ s⁻¹.

B6: DVD031 (bispecific antibody, human IgG1, kappa)
heavy: [omitted - about 120 residues]ASTKGPEVQLLESGGGLVQPGGSLRLSCTASGFTFSSYAMNWVRQAPGKGLEWVSAISGSGGTTFYADSVKGRFTISRDNSRTTLYLQMNSLRAEDTAVYYCAKDLGWSDSYYYYYGMDVWGQGTTVTVSS[omitted - human IgG1 constant region]
light: [omitted - about 100 residues]RTVAAPDIQMTQFPSSLSASVGDRVTITCRASQGIRNDLGWYQQKPGKAPKRLIYAASRLHRGVPSRFSGSGSGTEFTLTISSLQPEDFATYYCLQHNSYPCSFGQGTKLEIKRTVAAPSVFIFPPSDEQLKSGTASVVCLLNNFYPREAKVQWKVDNALQSGNSQESVTEQDSKDSTYSLSSTLTLSKADYEKHKVYACEVTHQGLSSPVTKSFNRGEC
notes: DVD-Ig; also called HER-2 / IGF1R DVD-Ig; DVD031H
The molecule B6 came in with an EC50 in [6] of 171 nM.

B7: DVD031 (bispecific antibody, human IgG1, kappa)
heavy: [omitted - about 120 residues]ASTKGPEVQLLESGGGLVQPGGSLRLSCTASGFTFSSYAMNWVRQAPGKGLEWVSAISGSGGTTFYADSVKGRFTISRDNSRTTLYLQMNSLRAEDTAVYYCAKDLGWSDSYYYYYGMDVWGQGTTVTVSS[omitted - human IgG1 constant region]
light: [omitted - about 100 residues]RTVAAPDIQMTQFPSSLSASVGDRVTITCRASQGIRNDLGWYQQKPGKAPKRLIYAASRLHRGVPSRFSGSGSGTEFTLTISSLQPEDFATYYCLQHNSYPCSFGQGTKLEIKRTVAAPSVFIFPPSDEQLKSGTASVVCLLNNFYPREAKVQWKVDNALQSGNSQESVTEQDSKDSTYSLSSTLTLSKADYEKHKVYACEVTHQGLSSPVTKSFNRGEC
notes: DVD-Ig; also called HER-2 and IGF1R DVD-Ig
For the molecule B7, in [7], the “FACS Geometric Mean C-terminal” value turned out to be 24.7.

B8: DVD029 (HER-2 (seq. 1) and IGF1,2 DVD-Ig) (bispecific antibody, IgG1)
VH: [omitted - about 120 residues]ASTKGPQVQLVQSGAEVKKPGASVKVSCKASGYTFTSYDINWVRQATGQGLEWMGWMNPNSGNTGYAQKFQGRVTMTRNTSISTAYMELSSLRSEDTAVYYCARDPYYYYYGMDVWGQGTTVTVSS
VL: [omitted - about 100 residues]RTVAAPQSVLTQPPSVSAAPGQKVTISCSGSSSNIENNHVSWYQQLPGTAPKLLIYDNNKRPSGIPDRFSGSKSGTSATLGITGLQTGDEADYYCETWDTSLSAGRVFGGGTKLTVLG
notes: HC vector V1 (wild-type hIgG1 constant), LC vector V5 (kappa signal peptide, lambda constant); also called DVD029L
B8: the figures for the EC50 in test [8] and in [9] were 229 nM and 206 nM, respectively.

B9: DVD030 (IGF1,2 and HER-2 (seq. 1) DVD-Ig) (bispecific antibody, IgG1)
VH: QVQLVQSGAEVKKPGASVKVSCKASGYTFTSYDINWVRQATGQGLEWMGWMNPNSGNTGYAQKFQGRVTMTRNTSISTAYMELSSLRSEDTAVYYCARDPYYYYYGMDVWGQGTTVTVSSASTKGP[omitted - about 120 residues]
VL: QSVLTQPPSVSAAPGQKVTISCSGSSSNIENNHVSWYQQLPGTAPKLLIYDNNKRPSGIPDRFSGSKSGTSATLGITGLQTGDEADYYCETWDTSLSAGRVFGGGTKLTVLGQPKAAP[omitted - about 100 residues]
notes: HC vector V1 (wild-type hIgG1 constant), LC vector V4 (lambda signal peptide, kappa constant); also called DVD030H; DVD030L
With B9, the EC50 in test [10] came to 1.75 nM; in test [11], 5.49 nM.

B10: DVD031 (HER-2 (seq. 1) and IGF1R DVD-Ig) (bispecific antibody, IgG1)
VH: [omitted - about 120 residues]ASTKGPEVQLLESGGGLVQPGGSLRLSCTASGFTFSSYAMNWVRQAPGKGLEWVSAISGSGGTTFYADSVKGRFTISRDNSRTTLYLQMNSLRAEDTAVYYCAKDLGWSDSYYYYYGMDVWGQGTTVTVSS
VL: [omitted - about 100 residues]RTVAAPDIQMTQFPSSLSASVGDRVTITCRASQGIRNDLGWYQQKPGKAPKRLIYAASRLHRGVPSRFSGSGSGTEFTLTISSLQPEDFATYYCLQHNSYPCSFGQGTKLEIKR
notes: HC vector V1 (wild-type hIgG1 constant), LC vector V2 (kappa constant); also called DVD031L
Consider B10, for which the EC50 in test [12] stood at 171 nM.

B11: DVD032 (IGF1R and HER-2 (seq. 1) DVD-Ig) (bispecific antibody, IgG1)
VH: EVQLLESGGGLVQPGGSLRLSCTASGFTFSSYAMNWVRQAPGKGLEWVSAISGSGGTTFYADSVKGRFTISRDNSRTTLYLQMNSLRAEDTAVYYCAKDLGWSDSYYYYYGMDVWGQGTTVTVSSASTKGP[omitted - about 120 residues]
VL: DIQMTQFPSSLSASVGDRVTITCRASQGIRNDLGWYQQKPGKAPKRLIYAASRLHRGVPSRFSGSGSGTEFTLTISSLQPEDFATYYCLQHNSYPCSFGQGTKLEIKRTVAAP[omitted - about 100 residues]
notes: HC vector V1 (wild-type hIgG1 constant), LC vector V2 (kappa constant); also called DVD032H; DVD032L
In test [13], B11 yielded an EC50 of 0.16 nM.
